# Laboratory results taken from the supplement of paper PMC11417369.
# ± gives the standard deviation of the averaged measurements. The list shows a part of the results.
# Test system: PfAP2-G AP2 domain (GST-tagged)
# Assay: gcPBM binding intensity (ln(normalized median fluorescence intensity)); higher = stronger DNA binding
# In short: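 GST-tagged P. falciparum DNA-binding domains, expressed in E. coli (about 25 μg on average), were applied for 1 h to an Agilent 4 × 180k array of primer-extended double-stranded 36-bp intergenic genomic probes plus negative controls. The binding buffer was 1× PBS with 1% milk, 0.2 mg/ml BSA, 0.5% salmon testes DNA and 0.03% Triton X-100. Bound protein was detected with Alexa488 anti-GST antibody and scanned at 488 nm. Binding intensity is the highest Masliner-normalised natural-log median intensity across replicate spots of either probe orientation.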
row,Sequence,gcPBM binding intensity (ln)
1,TAATAAAATAAAAATTGTACATTTTATATTTATCAA [XGTACX_site5134],10.9 ± 0.61
2,TATGTGTATTTATTTGCATGTTGGTTGTATTTTTTC [TGCATGCA_site479],10.17 ± 0.042
3,TCTTCATATGTTTACTGTACGAGAAAAAAAAAAAAA [XGTACX_site6418],11.1 ± 0.9
4,ATAAATAATTATATATGTACACATTATGAATGGATA [XGTACX_site8336],11.4 ± 0.83
5,AGATTATTTGGACATGCATGTAAAAAAATACGTATA [TGCATGCA_site972],10.5 ± 0.4
6,AATGAAAAAAAAAAAAAAAAGAAGAAGCAAATGGTA [TGCATGCA_negctrl_site335],9.35 ± 0.31
7,TATTCTATACTATATTGTACTATAATATAATATACT [XGTACX_site797],10.9 ± 0.57
8,AAATAATTTATAAATAAATACATTGTTACTTTTTCT [GTGCAC_negctrl_site639],9.62 ± 0.29
9,ATTTCCCACTTGTGTGTGCGCATGTGTATATATTTA [GTGCAC_site9949],10.4 ± 0.27
10,TTATTTGTTTGTTGGATGCTTTTTTTTTTTTTTTTT [CACACA_negctrl_site1697],10.5 ± 0.41
11,TACATATATATAATATGTACTTATAATATGTATTTA [XGTACX_site2162],11.2 ± 0.73
12,AAAAGTGATAATAAGAGTACATAAAAAATTTATTAT [XGTACX_site8037],11.4 ± 0.92
13,ATTAAGGAAAAATTATGTACACAAAAACATATAACA [XGTACX_site2901],11.5 ± 0.87
14,TATACATGTTCAATTTGTACATATATAAATATATAT [XGTACX_site3554],11 ± 0.52
15,ATTTTTTTTTTTTTATGTACATATTAAAAAAAATAT [XGTACX_site1829],11.5 ± 0.9
16,GGTATTACTTTTAGCTGTACTTATTTAAAAGTCAAA [XGTACX_site530],11.5 ± 0.95
17,ATTTTTACTTTTTATGCATGCTATATTTTCAACCAT [TGCATGCA_site871],10.1 ± 0.22
18,ATTCAAAAAAATAAAATAAACATAAATAAACATAAA [TGCATGCA_negctrl_site390],9.655 ± 0.007
19,CTACACAAGCATTAAACACACAAAAGGGATACTTTG [CACACA_site1083],10.14 ± 0.071
20,GGAAAAAGAAATTAATGTACATGTGGATGTATGAGG [XGTACX_site5468],11.2 ± 0.53
21,AAAATATTTAAGCATTGTACATATTTTTACAAATAC [XGTACX_site5349],11 ± 0.68
22,AAAATTCATCCAACAAGTACATAAATATAATATTAT [XGTACX_site4596],11.3 ± 0.79
23,TTTAATTCCCATATATGTACACAATTTCTTCTATAA [XGTACX_site1465],11.3 ± 0.71

row,Sequence,gcPBM binding intensity (ln)
1,AGACTTTTTATGAGCACACACATATATTATGGAGTA [CACACA_site1040],10.3 ± 0.15
2,ATAAATTCATTATATTGTACAAACAAATGAAAAAAA [XGTACX_site8304],10.9 ± 0.71
3,ATACATAAATATTATTGTACATATATAATATTAATA [XGTACX_site3514],11 ± 0.66
4,AAGAACAGATAAAATCGTACGTGAAACATGAACTTG [XGTACX_site7793],10.8 ± 0.45
5,TCTGAAATTTTAGGGGTGCCTGGGACTAAAGAAACG [GTGCAC_site9785],10.4 ± 0.39
6,TAGAAACCATAAAAATGTACTTAAAAATAGACAATT [XGTACX_site5007],11.2 ± 0.78
7,ATGTAAATATTTTGTATGCACTTTGATGCATCTTTT,9.9 ± 0.014
8,TTTTTTTCTTCTTTTCTCTTAAAAATATTGAATATT [CACACA_negctrl_site1762],9.74 ± 0.14
9,TAAGAAATTGAGCGCACACATACATCTGTGGGATGG [CACACA_site1548],10.44 ± 0.085
10,ATTGTGGATATTCTTACACACAAATTTATTTATAAA [CACACA_site7267],9.91 ± 0.2
11,AAAAAAAAAAAAAAAAAAAAAAAAAAAAAAAAAAAG [CACACA_negctrl_site292],11.3 ± 0.72
12,TCAAGAGTTATATAAACACACATACATACAGACATA [CACACA_site6998],10.02 ± 0.064
13,TTTTTTTTTTTTGAGGTGCATATATCAGATCAATAT,10.1 ± 0.5
14,CATATATTAATATGTACACACATTAATAAAAAAAAA [CACACA_site7504],11.4 ± 0.83
15,AGCAAAAAAAAAAAAAAAAAAAAAATAATAAAAAAT [TGCATGCA_negctrl_site202],9.36 ± 0.28
16,GTTTTCTAGTGGGGGTGTACATATTTATATTTAATA [XGTACX_site8378],11.7 ± 0.86
17,ATATATATATAATAAGTGCAAAAAAAAGAAAAAAAT,10.1 ± 0.13
18,AGTATTCATAAAAATACACACATGGAAAAATAAAAT [CACACA_site1454],9.995 ± 0.078
19,TATTTTATTTATTGAAGTACATTATACAAAAATAAA [XGTACX_site4824],11.2 ± 1
20,AGCCACTTAAAATACACACACACCAAAAAAAAAAAA [CACACA_site5497],10.1 ± 0.45
21,TTTTCCAGTAAATATTTTTTTATAATATTTATATAT [CACACA_negctrl_site387],9.685 ± 0.007
22,TATTCGAACAAAAATACATGCACATATGCATAATAA [TGCATGCA_site171],9.84 ± 0.042
